Reference: PubChem BioAssay AID488969 (Vanderbilt High Throughput Screening Facility, 2010)
In all, about 110,000 compounds were measured (“z-score”: median about -0.1, highest 2% from about 2 on). Some of the results follow. The source made the active and inactive calls.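 How the source made its calls: active means z-score in the third read window above 3 or below -3; inactive means the rest.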

What follows are molecules tested against Metabotropic glutamate receptor 8 (Rattus norvegicus) (UniProt P70579) (assay: mGluR8 Gi/Go-coupled signaling modulation – cell-based, rat, thallium flux, HTS, primary screen (AID 488969)). Settings: HEK293 rat mGluR8, GIRK (G protein-gated inwardly rectifying potassium channel) thallium flux, FluoZin2; at 10 µM; stronger effect = higher value; submaximal glutamate (EC20) added with thallium.
Chain of UniProt P70579 (P70579 whole entry, looked up): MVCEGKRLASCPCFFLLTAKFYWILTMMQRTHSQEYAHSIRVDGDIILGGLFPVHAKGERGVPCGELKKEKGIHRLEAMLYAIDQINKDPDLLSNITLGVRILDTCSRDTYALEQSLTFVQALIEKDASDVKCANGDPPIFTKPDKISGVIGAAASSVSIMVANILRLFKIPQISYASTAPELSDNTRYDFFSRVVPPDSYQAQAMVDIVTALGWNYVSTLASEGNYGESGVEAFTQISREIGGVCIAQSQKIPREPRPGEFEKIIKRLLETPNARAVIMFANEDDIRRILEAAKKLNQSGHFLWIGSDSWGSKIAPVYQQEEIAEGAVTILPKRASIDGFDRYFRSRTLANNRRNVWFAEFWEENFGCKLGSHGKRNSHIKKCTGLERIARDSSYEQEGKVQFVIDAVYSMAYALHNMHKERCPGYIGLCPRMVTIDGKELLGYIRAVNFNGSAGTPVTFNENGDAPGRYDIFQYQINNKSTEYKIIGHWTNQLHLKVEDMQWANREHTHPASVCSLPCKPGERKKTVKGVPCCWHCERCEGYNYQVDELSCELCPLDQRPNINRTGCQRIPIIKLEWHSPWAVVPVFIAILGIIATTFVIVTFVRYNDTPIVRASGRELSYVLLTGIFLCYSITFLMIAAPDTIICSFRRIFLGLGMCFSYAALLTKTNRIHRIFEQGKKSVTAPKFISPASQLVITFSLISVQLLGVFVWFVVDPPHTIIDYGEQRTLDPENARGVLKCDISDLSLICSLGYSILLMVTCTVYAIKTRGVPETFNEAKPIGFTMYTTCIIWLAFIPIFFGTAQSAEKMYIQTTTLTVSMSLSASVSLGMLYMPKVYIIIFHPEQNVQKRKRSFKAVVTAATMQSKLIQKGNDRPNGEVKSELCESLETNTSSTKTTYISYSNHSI

| SMILES | z-score |
| --- | --- |
| Cc1cccc(N2C(=O)c3cccc4c(N5CCCCC5)c([N+](=O)[O-])cc(c34)C2=O)c1C | -0.494 |
| O=C(CC1NCCNC1=O)OCc1ccccc1 (centres undefined) | 0.419 |
| COc1ccc(-c2[nH]c(-c3ccccc3)nc2SCC(=O)NCc2ccco2)cc1OC | 0.0309 |
| Cc1cc(N2CCCCC2)nc(N)n1 | 0.0516 |
| O=C(Nc1cccc(OCC(=O)N2CCOCC2)c1)C1CCCCC1 | 0.00741 |
| O=C(COC(=O)c1cccs1)Nc1nc(-c2ccccc2)cs1 | -0.296 |
| COc1ccc(C(=O)Nc2cc(C(F)(F)F)ccc2-n2cnc3ccccc32)cc1 | -0.219 |
| O=C(Nc1ccc(F)cc1)N1CCC(c2nc3c(nnn3Cc3cccc(Cl)c3)c(=O)[nH]2)CC1 | -0.111 |
| COc1cccc(/C=N/NC(=O)c2cccc([N+](=O)[O-])c2)c1OS(=O)(=O)c1ccc(C)cc1 | 0.156 |
| COc1ccccc1/C=C/C1=NC(=C\C=C/c2ccccc2)/C(=O)O1 | 0.49 |
| Cc1ccn2c(/C=N/OCc3ccc(F)cc3)c(-c3ccc(Cl)cc3)nc2c1 | -0.0987 |
| CCOC(=O)C1C(=O)CC(O)(c2ccccc2)CC1c1ccccc1 (centres undefined) | -0.679 |
| Cc1cccc(-n2c(C)cc(/C=N/NC(=O)c3cccc([N+](=O)[O-])c3C)c2C)c1 | -0.459 |
| CCN(C#N)c1nc(NC(C)C)nc(NC(C)C)n1 | active: -3.06 |
| CCN(CC)c1ccc(/C=N/NC(=O)CCC(=O)NCc2ccccc2)c(O)c1 | 0.00231 |
| CN(c1ccccc1)c1ccc(/C=N/NC(=O)CC#N)cc1 | -0.203 |
| CCN(CC)c1ccc(-n2c(C)cc(C=O)c2C)cc1 | 0.148 |
| N#Cc1nc(Cc2ccccc2)oc1N1CCC(Cc2ccccc2)CC1 | -0.0794 |
| O=C(CSc1nc2nc[nH]c2c(=O)[nH]1)NC1CCCCC1 | 0.456 |
| O=C(COc1ccc(Br)cc1)NNC(=S)NC(=O)c1ccccc1[N+](=O)[O-] | -0.343 |
| Cc1ccc(C)c2c1cc(C)c1nnc(SCC(=O)c3cccs3)n12 | -0.212 |
| COc1cccc(/C=N/Nc2ncnc3c2ncn3Cc2ccccc2)c1O | -0.371 |

| SMILES | z-score |
| --- | --- |
| Cc1[nH]c2ccccc2c1C(=O)COC(=O)C(C)C | -0.437 |
| CCCn1cc(SCC(=O)NCC2CCCO2)c2ccccc21 (centres undefined) | 0.0527 |
| O=c1oc(-c2ccccc2)nc2ccsc12 | -1.43 |
| CC(C)(C)C(=O)Nc1ccc2oc(-c3cc(F)c(F)cc3Cl)nc2c1 | 0.247 |
| Cc1cc(C(=O)CSc2nnc(-c3ccco3)o2)c(C)n1Cc1ccco1 | -0.493 |
| COc1ccc(CCN2CC34C=CC(O3)C(C(=O)NCc3ccccc3)C4C2=O)cc1OC (centres undefined) | -1.3 |
| O=C(NN1C(=O)c2ccccc2NC1c1ccccn1)c1ccc([N+](=O)[O-])cc1 (centres undefined) | -0.183 |
| O=C(CC(SCCO)c1ccc2c(c1)OCO2)c1ccco1 (centres undefined) | 0.324 |
| Cc1cccc(Nc2nnc(-c3ccc(C(=O)N4C[C@H]5C[C@H](C4)c4cccc(=O)n4C5)cc3)c3ccccc23)c1 | -0.0469 |
| N#C/C(=C/c1ccc(N2CCCC2)c([N+](=O)[O-])c1)c1nc2ccccc2[nH]1 | 0.0678 |
| CC(SC1=NCCS1)C(=O)Nc1nnc(-c2ccc(Cl)cc2)s1 (centres undefined) | -0.386 |
| Fc1ccc(-c2csc3nnc(SCc4cccnc4)n23)cc1 | -0.0579 |
| CC1CCc2c(sc3c2C2=NS(=O)(=O)CCN2C=N3)C1 (centres undefined) | 0.913 |
| C=CCNc1sc(C(=O)C(C)(C)C)c(N)c1C#N | -0.0773 |
| CNc1nc(N(C)C)nc(N(C)C)n1 | -0.0155 |
| O=C1CCC(C(=O)NCc2cccnc2)N1 (centres undefined) | 0.133 |
| O=C(O)CSc1nnc(C2COc3ccccc3O2)n1-c1ccccc1 (centres undefined) | 0.669 |
| Cc1ccc(C)n1N1C(=O)/C(=C\c2ccc(Cl)cc2)SC1=S | -0.0433 |
| Cc1ccc(CC(=O)N2CCOCC2)cc1 | -0.184 |
| O=C(Cn1nnc(-c2ccc(Cl)cc2)n1)NC1CCN(Cc2ccccc2)CC1 | 0.243 |
| CCc1ccc(CCC(=O)Nc2ccc(S(N)(=O)=O)cc2)o1 | 0.191 |
| COc1cccc(C(=O)N2CCN(C3CCN(Cc4ccccc4)CC3)CC2)c1 | -0.193 |

| SMILES | z-score |
| --- | --- |
| Cc1c(NC2(c3nnnn3-c3ccc(Br)cc3)CCCCC2)c(=O)n(-c2ccccc2)n1C | -0.0573 |
| O=C(CSC1=NCCS1)N1CCN(c2ccccc2)CC1 | -0.0309 |
| CCN(CC)C(=O)c1sc2nc(-c3ccc(OC)cc3)cn2c1C | 0.0875 |
| CC1CCc2c(sc3nc(C4CC4)nc(N4CCN(C(=O)c5ccco5)CC4)c23)C1 (centres undefined) | -0.174 |
| COC(=O)[C@@H](NC(=O)NCc1cccs1)C(C)C | 0.171 |
| COc1ccc(CCNC(=O)c2c(C)cc(=O)oc2C)cc1OC | -0.0984 |
| COc1ccc(-c2csc3nc(-c4cccnc4)nc(N4CCC(C(N)=O)CC4)c23)cc1OC | -0.122 |
| Fc1ccc(N2CCN(c3ncnc4nc[nH]c34)CC2)cc1 | -0.189 |
| CCN(CC)S(=O)(=O)c1cc(C(=O)O)c(Cl)cc1Cl | -0.554 |
| CC(=O)Nc1cc(S(=O)(=O)C(F)(F)F)ccc1Cl | 0.128 |
| CC1CN(CC(=O)Nc2cccc(C(=O)Nc3cccc(C(F)(F)F)c3)c2)CC(C)O1 (centres undefined) | -0.157 |
| C=CCn1c(-c2ccccc2)n[nH]c1=S | -0.0664 |
| Cc1ccc(NC(=O)C(=O)NCCN2CCN(C(=S)Nc3ccccc3)CC2)cc1 | -0.0905 |
| CCn1c(N)nc2c1c(=O)n(C)c(=O)n2C | -0.0494 |
| CCOC(=O)COc1c(Cl)cc(C2NC(=S)NC(c3ccccc3)=C2C(C)=O)cc1OC (centres undefined) | -0.494 |
| CC(C)OC(=O)C1CC=CCC1C(=O)Nc1ccc(Cl)cc1 (centres undefined) | 0.303 |
| O=C(OCCN=C1NS(=O)(=O)c2ccccc21)C1CC(=O)N(c2ccc(Cl)cc2)C1 (centres undefined) | -0.929 |
| COc1cc(NC(=O)c2cc3nc(C)cc(C)n3n2)c(OC)cc1Cl | 0.225 |
| O=C(CCn1c(=O)c2ccccc2n(CC(=O)NC2CCCC2)c1=O)NCCc1ccc(Cl)cc1 | -0.252 |
| CCC(=O)N=c1sc2cc(F)cc(F)c2n1C | -0.41 |
| Cc1ccc2sc3ccc(NC(=O)c4ccccc4Cl)cc3c(=O)c2c1 | -0.266 |
| COC(=O)c1sc2ccccc2c1NC(=O)c1ccc(S(=O)(=O)N2CCC(C)CC2)cc1 | -0.0994 |

| SMILES | z-score |
| --- | --- |
| Cc1csc(NC(=O)C2CCCN(S(=O)(=O)c3cnc[nH]3)C2)n1 (centres undefined) | 0.36 |
| CC(=O)NS(=O)(=O)c1ccccc1 | 0.331 |
| Cc1ccccc1Sc1ncnc2onc(C)c12 | -0.106 |
| O=C(c1cc(-c2ccc(O)cc2)on1)N1CCCc2ccccc21 | -0.181 |
| COCCn1nnnc1C(c1cc2cc(C)ccc2[nH]c1=O)N1CCCCCC1 (centres undefined) | -0.105 |
| COCCNc1nc(N)c([N+](=O)[O-])c(NCCO)n1 | -0.583 |
| COc1ccccc1-c1cc(SC)c(C#N)c(=O)o1 | -0.292 |
| CCC(c1ccccc1)c1nc(-c2ccccn2)no1 (centres undefined) | -0.198 |
| Cc1cc(C)n(C(=O)c2ccc(S(=O)(=O)NCC3CCCO3)cc2)n1 (centres undefined) | -0.0446 |
| COc1ccccc1N1CCN(C(=O)c2ccc(S(=O)(=O)N3CCCCC3)cc2)CC1 | 0.712 |
| CCN(CC)S(=O)(=O)c1ccc(C(=O)OCn2nnc3ccccc3c2=O)cc1 | -0.0924 |
| CCOC(=O)c1cnn(Cc2ccccc2Cl)c1N | -0.517 |
| O=[N+]([O-])c1ccc(N2N=C(c3ccco3)CC2c2ccccc2)cc1 (centres undefined) | -0.317 |
| Cc1ccc(S(=O)(=O)c2cc(OC(=O)c3ccco3)ccc2OC(=O)c2ccco2)cc1 | 0.228 |
| CCCCC1OC2(C)OC(=N)C1(C#N)C(C#N)(C#N)C2c1ccccc1 (centres undefined) | -0.655 |
| S=c1[nH]ncn1/N=C/c1ccc(N2CCOCC2)cc1 | 0.0792 |
| Cc1cc(C(F)(F)F)nn1CC(=O)NNC(=S)Nc1ccc(F)cc1 | 0.281 |
| COc1ccc(S(=O)(=O)N2CCCCC2)cc1C(C)C | 0.47 |
| Cc1cc(OCCCC(=O)NCCN2C(=O)S/C(=C\c3cccnc3)C2=O)ccc1Cl | 1.18 |
| CCOc1ccc(C(=O)NC(=S)N(Cc2ccccc2)Cc2ccccc2)cc1 | active: 11.7 |
| Cc1ncc(S(=O)(=O)c2ccccc2)c(-c2ccccc2Cl)n1 | -0.138 |
| C/C(=N\NC(=O)C1(C)CC1(Br)Br)c1cccc(NC(=O)C2CCC2)c1 (centres undefined) | -0.455 |

| SMILES | z-score |
| --- | --- |
| CC1CCCCC1NC(=O)CSc1nnc(CN2CCOCC2)n1C (centres undefined) | 0.12 |
| Cc1ccc(-n2c(C)cc(/C=N/NC(=O)CC3(C)OCCO3)c2C)c(C)c1 | -0.381 |
| COc1ccc(COc2ccsc2C(=O)Nc2ccc(Cl)cc2)cc1 | -0.0169 |
| O=C(CSc1nnc(CCCN2C(=O)c3cccc4cccc(c34)C2=O)n1-c1ccccc1)N1CCCCC1 | -1.09 |
| CCC(C)C(NC(=O)C1CCC(C)CC1)C(=O)NCc1ccccn1 (centres undefined) | 0.219 |
| CCOC(=O)c1sc(NC(=O)CSc2nc(-c3ccco3)cc(C(F)(F)F)n2)c(C#N)c1C | -1.04 |
| COc1ccc(C2C=C(c3ccccc3)Nc3nc(CCCO)nn32)cc1 (centres undefined) | -0.168 |
| CCOc1ccc(C(=O)N/N=C/c2ccc(-c3ccc(S(=O)(=O)Nc4ncccn4)cc3)o2)cc1 | -0.00828 |
| O=C(CN(Cc1ccccc1)S(=O)(=O)c1ccccc1)N/N=C/c1ccc2c(c1)OCO2 | -0.185 |
| COc1ccc(CCN2CC(C(=O)NCc3ccco3)CC2=O)cc1OC (centres undefined) | 0.142 |
| COc1ccc(OCCOCCN2CCc3ccccc3C2)cc1 | 0.489 |
| CCOC(=O)c1c(NC(=S)NC(=O)c2ccc(Cn3cc(Cl)cn3)o2)sc2c1CCC(C)C2 (centres undefined) | -0.144 |
| Cc1ccc(-c2ccc(C(=O)O)[nH]2)cc1 | 2.4 |
| O=C(NN1C(=O)C2C3CCC(O3)C2C1=O)c1ccc(Cl)cc1 (centres undefined) | -0.19 |
| COc1ccccc1-n1c(SCC(=O)NC(C)(C)C)nc(O)cc1=O | 1.96 |
| COc1cc(/C=C2\C(=O)N(CCC#N)N=C2C)c(Br)cc1OC(C)C | -0.384 |
| CC(CCc1ccccc1)NC(=O)c1ccc(Cl)nc1 (centres undefined) | -0.894 |
| Cc1cc(C)cc(-n2cc[nH]c2=S)c1 | 0.141 |
| CC(C)[C@H](NC(=O)OCc1ccccc1)C(=O)NCc1ccccc1 | 0.156 |
| C=COCCNC(=O)Nc1ccc(Cl)cc1Cl | 0.104 |
| CCOc1ccc(C(C)NC(=O)C2CCC2)cc1 (centres undefined) | -0.117 |
